Laboratory results: PMC9911399, “Two distinct binding modes provide the RNA-binding protein RbFox with extraordinary sequence specificity”
Changes are numbered by the printed parent chain; changes in the protein carry UniProt numbers. This is one part of the list.

T1: RBFOX1 RRM (Homo sapiens, UniProt Q9NWB1 109-208)
T1 sequence: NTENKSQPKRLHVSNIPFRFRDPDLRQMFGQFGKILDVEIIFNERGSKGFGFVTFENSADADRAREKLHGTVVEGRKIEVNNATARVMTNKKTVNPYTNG

B1: GGGCAGU (DNA:RNA)
RNA: GGGAGACCGGAAUUCAGAUUGUCCGGGCAGUUUAAAUCCCGUCGUAGCCACCA
DNA 1: CAATCTGAATTCCGGTCTCCC
DNA 2: TGGTGGCTACGACGGGATT
B2: UCAUGGC (DNA:RNA)
RNA: B1 RNA with G25U, G26C, G27A, C28U, A29G, U31C
DNA 1: CAATCTGAATTCCGGTCTCCC
DNA 2: TGGTGGCTACGACGGGATT
B3: GCGGAGU (DNA:RNA)
RNA: B1 RNA with G26C, C28G
DNA 1: CAATCTGAATTCCGGTCTCCC
DNA 2: TGGTGGCTACGACGGGATT
B4: GUCACUU (DNA:RNA)
RNA: B1 RNA with G26U, G27C, C28A, A29C, G30U
DNA 1: CAATCTGAATTCCGGTCTCCC
DNA 2: TGGTGGCTACGACGGGATT
B5: GAGUCGU (DNA:RNA)
RNA: B1 RNA with G26A, C28U, A29C
DNA 1: CAATCTGAATTCCGGTCTCCC
DNA 2: TGGTGGCTACGACGGGATT
B6: GUCAUAA (DNA:RNA)
RNA: B1 RNA with G26U, G27C, C28A, A29U, G30A, U31A
DNA 1: CAATCTGAATTCCGGTCTCCC
DNA 2: TGGTGGCTACGACGGGATT
B7: AUCGUCG (DNA:RNA)
RNA: GGGAGACCGGAAUUCAGAUUGUCCAUCGUCGUUAAAUCCCGUCGUAGCCACCA
DNA 1: CAATCTGAATTCCGGTCTCCC
DNA 2: TGGTGGCTACGACGGGATT
B8: UGAAAUA (DNA:RNA)
RNA: B1 RNA with G25U, G27A, C28A, G30U, U31A
DNA 1: CAATCTGAATTCCGGTCTCCC
DNA 2: TGGTGGCTACGACGGGATT
B9: AAGCUCA (DNA:RNA)
RNA: B7 RNA with U26A, C27G, G28C, G31A
DNA 1: CAATCTGAATTCCGGTCTCCC
DNA 2: TGGTGGCTACGACGGGATT
B10: CCAGAAA (DNA:RNA)
RNA: B7 RNA with A25C, U26C, C27A, U29A, C30A, G31A
DNA 1: CAATCTGAATTCCGGTCTCCC
DNA 2: TGGTGGCTACGACGGGATT
B11: UGGGAAC (DNA:RNA)
RNA: B1 RNA with G25U, C28G, G30A, U31C
DNA 1: CAATCTGAATTCCGGTCTCCC
DNA 2: TGGTGGCTACGACGGGATT
B12: GAGUACC (DNA:RNA)
RNA: B1 RNA with G26A, C28U, G30C, U31C
DNA 1: CAATCTGAATTCCGGTCTCCC
DNA 2: TGGTGGCTACGACGGGATT
B13: ACUCGCG (DNA:RNA)
RNA: B7 RNA with U26C, C27U, G28C, U29G
DNA 1: CAATCTGAATTCCGGTCTCCC
DNA 2: TGGTGGCTACGACGGGATT
B14: UGUCAGA (DNA:RNA)
RNA: B1 RNA with G25U, G27U, U31A
DNA 1: CAATCTGAATTCCGGTCTCCC
DNA 2: TGGTGGCTACGACGGGATT
B15: UUCCUGA (DNA:RNA)
RNA: B7 RNA with A25U, G28C, C30G, G31A
DNA 1: CAATCTGAATTCCGGTCTCCC
DNA 2: TGGTGGCTACGACGGGATT
B16: GGCGGAG (DNA:RNA)
RNA: B7 RNA with A25G, U26G, U29G, C30A
DNA 1: CAATCTGAATTCCGGTCTCCC
DNA 2: TGGTGGCTACGACGGGATT
B17: AGUCUGC (DNA:RNA)
RNA: B1 RNA with G25A, G27U, A29U, U31C
DNA 1: CAATCTGAATTCCGGTCTCCC
DNA 2: TGGTGGCTACGACGGGATT
B18: CUCGUCC (DNA:RNA)
RNA: B7 RNA with A25C, G31C
DNA 1: CAATCTGAATTCCGGTCTCCC
DNA 2: TGGTGGCTACGACGGGATT
B19: CGUUCCG (DNA:RNA)
RNA: B7 RNA with A25C, U26G, C27U, G28U, U29C
DNA 1: CAATCTGAATTCCGGTCTCCC
DNA 2: TGGTGGCTACGACGGGATT
B20: UCAGUGC (DNA:RNA)
RNA: B7 RNA with A25U, U26C, C27A, C30G, G31C
DNA 1: CAATCTGAATTCCGGTCTCCC
DNA 2: TGGTGGCTACGACGGGATT
B21: UACAAGA (DNA:RNA)
RNA: B1 RNA with G25U, G26A, G27C, C28A, U31A
DNA 1: CAATCTGAATTCCGGTCTCCC
DNA 2: TGGTGGCTACGACGGGATT
B22: GAUCGAA (DNA:RNA)
RNA: B1 RNA with G26A, G27U, A29G, G30A, U31A
DNA 1: CAATCTGAATTCCGGTCTCCC
DNA 2: TGGTGGCTACGACGGGATT
B23: ACUGUAG (DNA:RNA)
RNA: B7 RNA with U26C, C27U, C30A
DNA 1: CAATCTGAATTCCGGTCTCCC
DNA 2: TGGTGGCTACGACGGGATT
B24: UUGUCCA (DNA:RNA)
RNA: B7 RNA with A25U, C27G, G28U, U29C, G31A
DNA 1: CAATCTGAATTCCGGTCTCCC
DNA 2: TGGTGGCTACGACGGGATT
B25: CAACCCG (DNA:RNA)
RNA: B7 RNA with A25C, U26A, C27A, G28C, U29C
DNA 1: CAATCTGAATTCCGGTCTCCC
DNA 2: TGGTGGCTACGACGGGATT
B26: UAAGGGC (DNA:RNA)
RNA: B7 RNA with A25U, U26A, C27A, U29G, C30G, G31C
DNA 1: CAATCTGAATTCCGGTCTCCC
DNA 2: TGGTGGCTACGACGGGATT
B27: UAAGUUA (DNA:RNA)
RNA: B7 RNA with A25U, U26A, C27A, C30U, G31A
DNA 1: CAATCTGAATTCCGGTCTCCC
DNA 2: TGGTGGCTACGACGGGATT
B28: UAAAUGG (DNA:RNA)
RNA: B7 RNA with A25U, U26A, C27A, G28A, C30G
DNA 1: CAATCTGAATTCCGGTCTCCC
DNA 2: TGGTGGCTACGACGGGATT
B29: ACGGUAC (DNA:RNA)
RNA: B7 RNA with U26C, C27G, C30A, G31C
DNA 1: CAATCTGAATTCCGGTCTCCC
DNA 2: TGGTGGCTACGACGGGATT
B30: AGCGAUC (DNA:RNA)
RNA: B7 RNA with U26G, U29A, C30U, G31C
DNA 1: CAATCTGAATTCCGGTCTCCC
DNA 2: TGGTGGCTACGACGGGATT
B31: UCUUAGC (DNA:RNA)
RNA: B1 RNA with G25U, G26C, G27U, C28U, U31C
DNA 1: CAATCTGAATTCCGGTCTCCC
DNA 2: TGGTGGCTACGACGGGATT

Each binder was assayed against T1, RBFOX1 RRM (assay: EMSA; HiTS-Eq, 1 nM pool, 10 min; buffer printed only for the single-RNA assays: 10 mM Tris pH 7.5, 150 mM NaCl, 3.4 mM EDTA, 0.001% NP-40, 30 C). Conditions: tags: His6 N-terminal (pET28a); label: 5' 32P.
Procedure, shortened: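 Purified wild-type or mutant RbFox RRM at increasing concentrations was equilibrated with 1 nM of 5′-radiolabelled RNA carrying 7 randomized nucleotides for 10 min in 50 µL. Unbound RNA was separated by 8% native PAGE and sequenced. Relative association constants came from read-count changes of each RNA species compared with the control reaction, normalised to the cognate motif.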
In the case of B1, the binding signal is reported as 0.0161 KA relative to UGCAUGU.
In the case of B2, the binding signal is reported as 0.00874 KA relative to UGCAUGU.
In the case of B3, the binding signal is reported as 0.013 KA relative to UGCAUGU.
In the case of B4, the binding signal is reported as 0.00564 KA relative to UGCAUGU.
In the case of B5, the binding signal is reported as 0.0129 KA relative to UGCAUGU.
B6 was tested, and the binding signal was 0.00425 KA relative to UGCAUGU.
With B7 the binding signal was 0.0104 KA relative to UGCAUGU.
In the case of B8, the binding signal is reported as 0.00971 KA relative to UGCAUGU.
In the case of B9, the binding signal is reported as 0.0057 KA relative to UGCAUGU.
B10 was tested, and the binding signal was 0.00434 KA relative to UGCAUGU.
In the case of B11, the binding signal is reported as 0.03 KA relative to UGCAUGU.
For B12, the binding signal was 0.0102 KA relative to UGCAUGU.
For B13, the binding signal was 0.00699 KA relative to UGCAUGU.
For B14, the binding signal was 0.0175 KA relative to UGCAUGU.
B15 was tested, and the binding signal was 0.0194 KA relative to UGCAUGU.
For B16, the binding signal was 0.0171 KA relative to UGCAUGU.
With B17 the binding signal was 0.0172 KA relative to UGCAUGU.
With B18 the binding signal was 0.00629 KA relative to UGCAUGU.
For B19, the binding signal was 0.0138 KA relative to UGCAUGU.
For B20, the binding signal was 0.018 KA relative to UGCAUGU.
In the case of B21, the binding signal is reported as 0.0052 KA relative to UGCAUGU.
For B22, the binding signal was 0.0122 KA relative to UGCAUGU.
With B23 the binding signal was 0.0082 KA relative to UGCAUGU.
With B24 the binding signal was 0.0104 KA relative to UGCAUGU.
B25 was tested, and the binding signal was 0.00119 KA relative to UGCAUGU.
With B26 the binding signal was 0.00505 KA relative to UGCAUGU.
B27 was tested, and the binding signal was 0.00854 KA relative to UGCAUGU.
In the case of B28, the binding signal is reported as 0.00549 KA relative to UGCAUGU.
In the case of B29, the binding signal is reported as 0.00977 KA relative to UGCAUGU.
B30 was tested, and the binding signal was 0.0116 KA relative to UGCAUGU.
B31 was tested, and the binding signal was 0.00933 KA relative to UGCAUGU.
